Results reported in patent US8840891 (RSR, dated 2014).
Entries with a single value are a further part of the results.

Experiments:
[1] = target: TSHR coated onto tubes (TSHR coated tubes) (human) (UniProt P16473); assay: TSHR coated tubes; set-up: reference of the scale not given here
[2] = target: TSHR coated onto tubes (TSHR coated tubes) (human) (UniProt P16473); assay: TSHR coated tubes; set-up: reference of the scale not given here; remark: listed apart in the source

% inhibition of 125I-M22 IgG binding ([1]; Assay calibrator 1 U/L): 21.8%
% inhibition of 125I-5C9 IgG binding ([1]; Assay calibrator 2 U/L): 21.3%
% inhibition of 125I-M22 IgG binding ([1]; Assay calibrator 2 U/L): 27.9%
% inhibition of 125I-M22 IgG binding ([1]; Assay calibrator 8 U/L): 63.3%
% inhibition of 125I-5C9 IgG binding ([1]; Assay calibrator 40 U/L): 87.2%
% inhibition of 125I-M22 IgG binding ([1]; Assay calibrator 40 U/L): 82.2%
% inhibition of 125I-5C9 IgG binding ([2]; Assay calibrator 1 U/L): 4.3%
% inhibition of 125I-TSH binding ([2]; Assay calibrator 1 U/L): 15%
% inhibition of 125I-5C9 IgG binding ([2]; Assay calibrator 2 U/L): 15%
% inhibition of 125I-TSH binding ([2]; Assay calibrator 2 U/L): 27%
% inhibition of 125I-5C9 IgG binding ([2]; Assay calibrator 8 U/L): 62%
% inhibition of 125I-TSH binding ([2]; Assay calibrator 8 U/L): 67%
% inhibition of 125I-5C9 IgG binding ([2]; Assay calibrator 40 U/L): 87%
% inhibition of 125I-TSH binding ([2]; Assay calibrator 40 U/L): 90%
Substance: M22 IgG (human monoclonal thyroid stimulating autoantibody, hMAb TSHR1)
